About 200 (0.47%) of roughly 43,000 compounds were called active. About 12% were inconclusive and are not listed. The call rests on the fitted dose curve; in most records, active means well fitted cell-killing curve with a large enough effect; inconclusive means small, poorly fitted or top-dose-only effect, or effect the other way; inactive means flat fitted curve, though single readings scatter. Some of the results follow.
On the % scale 0 is the no-effect control and ±100 the full control effect.

This assay can be described thus: Cell viability qHTS assay in S16 Pmp22-F2sN cells. Further: nearly all actives have a fitted effect of over 65% in size. The note with it: S16 Pmp22-F2sN Schwann cells (luciferase reporters placed in the Pmp22 gene) viability, CellTiter-Glo, 24 h; series mostly up to 57.5 µM; activity change, negative = cytotoxicity: at the top concentration. The essentials:
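S16 Schwann cells carrying the Pmp22-F2sN reporter, seeded in 1536-well format, were exposed to library compounds for 24 h at 37C. Viability was read as CellTiter-Glo luminescence after 15 min at room temperature.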
(In qHTS, concentration-response curves come from the screen itself.)
As to `CCc1ccc(Oc2c(C(F)(F)F)oc3c(CN4CCN(CC)CC4)c(O)ccc3c2=O)cc1`, the “activity change, negative = cytotoxicity” value is inactive: -0.485%. Consider `O=c1c(N2CCN(c3cccc(Cl)c3)CC2)csc2ccccc12`, for which the “activity change, negative = cytotoxicity” value was inactive: 0.0582%.

Take `Cc1cc(C)cc(NC(=O)C(=O)NCCCN2CCOCC2)c1`: the “activity change, negative = cytotoxicity” value was inactive: 17%. For `Cc1ccc2cc3cc(C(=O)N4CCN(c5ccccc5)CC4)oc3nc2c1` the value was inactive: -8.61%; for `CCc1nn(CC(=O)NCc2ccccc2Cl)c(=O)c2cc3ccccc3n12`, inactive: 0.344%. Take `COc1ccc(OCC(=O)Nc2ccc3c(c2)nc(CCNC(=O)c2ccco2)n3C)cc1`: the “activity change, negative = cytotoxicity” value is inactive: -0.47%. As to `O=C(Nc1ccc(Br)cc1)c1ccc(F)c(S(=O)(=O)N2CCCc3ccccc32)c1`, the “activity change, negative = cytotoxicity” value was inactive: -5.73%. On to `CC(C)Cn1c(=O)c2sccc2n2c(CCCC(=O)NCCc3ccc(Cl)cc3)nnc12`, for which the “activity change, negative = cytotoxicity” value is inactive: -7.52%. In the case of `CCOC(=O)c1ccc(CN(Cc2ccc(Cl)cc2Cl)S(=O)(=O)c2ccc(F)c(C)c2)cc1`, the “activity change, negative = cytotoxicity” value was inactive: 8.98%. Consider `CCc1ccc2nc(N(Cc3cccnc3)C(C)=O)sc2c1`, for which the “activity change, negative = cytotoxicity” value is inactive: -2.16%.

In the case of `c1ccc(N2CCN(Cc3cccn3-c3nnc(N4CCN(C5CCCCC5)CC4)s3)CC2)cc1`, the “activity change, negative = cytotoxicity” value was inactive: 15.6%. On to `CCc1ccccc1NS(=O)(=O)c1ccc2c(c1)CCN2C(=O)C1CC1`, for which the “activity change, negative = cytotoxicity” value was inactive: -16.4%. For `CCc1ccc(-c2nn(CC(=O)NC3CCCCC3)c3c2cnc2ccc(C)cc23)cc1` the value was inactive: 1.02%; for `O=C(CN1CCN(Cc2cccc(Cl)c2)C1=O)NCc1ccc(F)cc1`, inactive: 12.6%; for `CCN(c1ccccc1C)S(=O)(=O)c1ccc(N2CCCCS2(=O)=O)cc1`, inactive: -12.7%. For `COc1ccc(C2CC(=O)N(Cc3ccc(F)cc3)c3ccccc3S2)cc1OC` (centres undefined) the value was inactive: 3.14%. For `COc1ccc(OC)c2sc(N3CCN(C(=O)c4ccc5c(c4)CCCC5)CC3)nc12`, the “activity change, negative = cytotoxicity” value is inactive: -19.7%. For `CCC1CCc2nc3sc(C(=O)Nc4ccc(C)cc4)c(N)c3cc2C1` (centres undefined) the value was inactive: 3.27%; for `COc1ccccc1C(=O)NCCn1cc(SCc2ccc(C)cc2)c2ccccc21`, inactive: 2.84%; for `Cc1nn(-c2ccccc2)c(-n2cccc2)c1C(=O)NCCc1ccc(Cl)cc1`, inactive: -1.93%. Take `Cn1c(=O)c2cc(C(=O)NCCCN3CCN(c4cccc(Cl)c4)CC3)sc2c2ccccc21`: the “activity change, negative = cytotoxicity” value was inactive: -1.19%. As for `CCOc1ccc(CCNC(=O)c2nn(-c3ccc(OC)c(Cl)c3)c(=O)c3c2c2ccccc2n3C)cc1OCC`, the “activity change, negative = cytotoxicity” value is inactive: 10.9%. Regarding `COc1ccc(-c2cc3ccc(O)c(CN4CCC(C)CC4)c3oc2=O)cc1`, the “activity change, negative = cytotoxicity” value was inactive: 9.1%.

For the compound `O=C(Nc1ccc2oc(-c3cccnc3)nc2c1)c1ccc(-c2ccccc2OC(F)(F)F)o1`, the “activity change, negative = cytotoxicity” value is inactive: 28.4%.

As for `COc1ccc(-n2nc(C(=O)Nc3cc(OC)c(OC)c(OC)c3)c(=O)n(C)c2=O)cc1`, the “activity change, negative = cytotoxicity” value was inactive: -27.1%. For the compound `COc1ccc(-n2nc(C(=O)N3CCN(c4ccc(F)cc4)CC3)c3c4ccccc4n(C)c3c2=O)cc1`, the “activity change, negative = cytotoxicity” value is inactive: 9.54%. Take `CC1=C(c2ccc(C)cc2)S(=O)(=O)NC1=NCCCN1CCN(c2ccccc2F)CC1`: the “activity change, negative = cytotoxicity” value was inactive: -16.1%. Regarding `Cc1nn(C)c2c1c(C(F)(F)F)cc(=O)n2CC(=O)NCCC(C)C`, the “activity change, negative = cytotoxicity” value is inactive: 0.0454%. Regarding `Cc1ccc(CN2CCCn3nc(C(=O)NC(C)C)cc3C2=O)cc1`, the “activity change, negative = cytotoxicity” value is inactive: 14.8%. As for `Cc1ccc(N2CCN(S(=O)(=O)c3cc(C(=O)Nc4cc(Cl)cc(Cl)c4)ccc3F)CC2C)cc1` (centres undefined), the “activity change, negative = cytotoxicity” value was inactive: -21.9%. For `CC(=O)Nc1nonc1-c1nnc(SCC(=O)Nc2cccc(F)c2)n1-c1ccccc1` the value was inactive: -0.712%. In the case of `COC(=O)c1scc(-c2ccc(C)cc2)c1S(=O)(=O)Nc1ccc(F)cc1F`, the “activity change, negative = cytotoxicity” value was inactive: 1.84%. For `COc1ccc(NC(=O)Cn2c(=O)n(Cc3nc(-c4ccccc4)no3)c(=O)c3cc4c(cc32)OCO4)c(OC)c1`, the “activity change, negative = cytotoxicity” value was inactive: -7.68%.

As for `O=C(Nc1ccc2oc(-c3cccnc3)nc2c1)c1ccc(Br)cc1`, the “activity change, negative = cytotoxicity” value was inactive: 4.44%.

As for `Cc1nn(CC(=O)NCc2ccc(Cl)cc2)c(=O)c2cc3sccc3n12`, the “activity change, negative = cytotoxicity” value is inactive: 12.8%. Turning to `COc1ccc(Oc2c(C(F)(F)F)oc3c(CN4CCCC(C)C4)c(O)ccc3c2=O)cc1` (centres undefined), the “activity change, negative = cytotoxicity” value is inactive: 5.57%.

In the case of `COc1ccccc1N1CCN(c2ccc(=O)n(CC(=O)NCc3ccc(OC(C)C)cc3)n2)CC1`, the “activity change, negative = cytotoxicity” value was inactive: -13.9%.

On to `Cc1ccc(NC(=O)Cn2cc3c(n2)CCCC3)c(Cl)c1`, for which the “activity change, negative = cytotoxicity” value was inactive: 1.95%. For the compound `COc1ccc(C)cc1NC(=O)Cn1c(=O)c(C(F)(F)F)nc2ccccc21`, the “activity change, negative = cytotoxicity” value was inactive: 11.9%. On to `CCn1c(C(=O)NCc2ccc(OC(C)C)cc2)cc2oc3ccccc3c21`, for which the “activity change, negative = cytotoxicity” value was inactive: -0.599%.

As for `CCOc1ccc(-n2c(SCC(=O)N3CCC(C)CC3)nc3c([nH]c4ccccc43)c2=O)cc1`, the “activity change, negative = cytotoxicity” value is inactive: 14.5%. For `Cc1ccc(C)c(N2CCN(C(=O)c3cc(C)nc4c3c(C)nn4-c3cccc(F)c3)CC2)c1`, the “activity change, negative = cytotoxicity” value was inactive: 4.98%. As for `Cc1ccc(C)c(N2CCN(c3ccc4cc(S(=O)(=O)N5CCC(C)CC5)ccc4n3)CC2)c1`, the “activity change, negative = cytotoxicity” value was inactive: -3.3%. For `CCOc1ccc(C(=O)NCCc2sc(-c3ccc(OC)c(OC)c3)nc2C)cc1` the value was inactive: 1.45%; for `Cc1ccccc1OCC(=O)Nc1sc2c(c1C(=O)OC(C)C)CCCC2`, inactive: 2.56%; for `O=C(Nc1cc(Cl)cc(Cl)c1)c1ccc2c(c1)N(Cc1cccc(Cl)c1)C(=O)c1ccccc1S2=O` (centres undefined), inactive: 0.287%. For `COC(=O)c1ccc(C2c3c(oc4ccccc4c3=O)C(=O)N2c2nc(C)c(C(=O)OC)s2)cc1` (centres undefined) the value was inactive: 2.15%. As to `COc1ccccc1NC(=O)c1cc(S(=O)(=O)N2CCN(c3ccccc3Cl)CC2)ccc1F`, the “activity change, negative = cytotoxicity” value is inactive: 0.536%. Turning to `Cc1nn(CC(=O)O)c(=O)c2cc3cc(F)ccc3n12`, the “activity change, negative = cytotoxicity” value was inactive: 1.04%. Consider `COc1ccc2c(CNCc3cccs3)c(C(=O)O)n(Cc3ccc(C)cc3)c2c1`, for which the “activity change, negative = cytotoxicity” value is inactive: 5.3%. As to `Cc1cccc(-n2c(=O)c3c(c4cc(C)ccc4n3C)n(CC(=O)NCC3CCCO3)c2=O)c1` (centres undefined), the “activity change, negative = cytotoxicity” value was inactive: -2.06%. Take `CCCOc1ccc(C(=O)Nc2cc3c(cc2N2CCOCC2)n(C)c(=O)n3C)cc1`: the “activity change, negative = cytotoxicity” value is inactive: -3.12%.

In the case of `Cc1oc(-c2cccc(Cl)c2)nc1CS(=O)(=O)CC(=O)NCc1ccccc1Cl`, the “activity change, negative = cytotoxicity” value is inactive: -11.7%.

For the compound `Cc1ccccc1Cn1c2ccccc2c2cnn(CC(=O)NC(C)CCc3ccccc3)c(=O)c21` (centres undefined), the “activity change, negative = cytotoxicity” value is inactive: -9.66%.

Take `CCc1ccc2oc(C(=O)Nc3c(C)n(C)n(-c4ccccc4)c3=O)cc(=O)c2c1`: the “activity change, negative = cytotoxicity” value was inactive: 0.636%. For `N#Cc1ccc(C(=O)NCc2ccc3c(c2)CCN3C(=O)c2ccc(F)cc2)cc1` the value was inactive: -6.54%.

With `CCOC(=O)c1ccc(N2C(=O)c3n[nH]c(C)c3C2c2ccccc2OC)cc1` (centres undefined), the “activity change, negative = cytotoxicity” value was inactive: 5.91%. On to `Cc1cccc(Cn2nc(C)n3c(cc4cc(C)ccc43)c2=O)c1`, for which the “activity change, negative = cytotoxicity” value is inactive: 0.162%. `COC(=O)c1ccc(NC(=O)CN(CCc2ccccc2)S(=O)(=O)c2ccc(OC)cc2)cc1`: the “activity change, negative = cytotoxicity” value is inactive: 5.39%.

Values taken from PubChem BioAssay AID1508642 (National Center for Advancing Translational Sciences (NCATS), 2021).
